Among all 310,000 compounds or so, about 2,200 (0.71%) showed an effect of 50% or more. The effect is printed as a negative number. The list shows a part of the results.
Each molecule was assayed against human ether-à-go-go-related gene (hERG) potassium channel (human, UniProt Q12809) (assay: primary screen, population patch clamp on CHO cells stably expressing hERG).
Chain of human ether-à-go-go-related gene (hERG) potassium channel (Q12809 whole entry, looked up): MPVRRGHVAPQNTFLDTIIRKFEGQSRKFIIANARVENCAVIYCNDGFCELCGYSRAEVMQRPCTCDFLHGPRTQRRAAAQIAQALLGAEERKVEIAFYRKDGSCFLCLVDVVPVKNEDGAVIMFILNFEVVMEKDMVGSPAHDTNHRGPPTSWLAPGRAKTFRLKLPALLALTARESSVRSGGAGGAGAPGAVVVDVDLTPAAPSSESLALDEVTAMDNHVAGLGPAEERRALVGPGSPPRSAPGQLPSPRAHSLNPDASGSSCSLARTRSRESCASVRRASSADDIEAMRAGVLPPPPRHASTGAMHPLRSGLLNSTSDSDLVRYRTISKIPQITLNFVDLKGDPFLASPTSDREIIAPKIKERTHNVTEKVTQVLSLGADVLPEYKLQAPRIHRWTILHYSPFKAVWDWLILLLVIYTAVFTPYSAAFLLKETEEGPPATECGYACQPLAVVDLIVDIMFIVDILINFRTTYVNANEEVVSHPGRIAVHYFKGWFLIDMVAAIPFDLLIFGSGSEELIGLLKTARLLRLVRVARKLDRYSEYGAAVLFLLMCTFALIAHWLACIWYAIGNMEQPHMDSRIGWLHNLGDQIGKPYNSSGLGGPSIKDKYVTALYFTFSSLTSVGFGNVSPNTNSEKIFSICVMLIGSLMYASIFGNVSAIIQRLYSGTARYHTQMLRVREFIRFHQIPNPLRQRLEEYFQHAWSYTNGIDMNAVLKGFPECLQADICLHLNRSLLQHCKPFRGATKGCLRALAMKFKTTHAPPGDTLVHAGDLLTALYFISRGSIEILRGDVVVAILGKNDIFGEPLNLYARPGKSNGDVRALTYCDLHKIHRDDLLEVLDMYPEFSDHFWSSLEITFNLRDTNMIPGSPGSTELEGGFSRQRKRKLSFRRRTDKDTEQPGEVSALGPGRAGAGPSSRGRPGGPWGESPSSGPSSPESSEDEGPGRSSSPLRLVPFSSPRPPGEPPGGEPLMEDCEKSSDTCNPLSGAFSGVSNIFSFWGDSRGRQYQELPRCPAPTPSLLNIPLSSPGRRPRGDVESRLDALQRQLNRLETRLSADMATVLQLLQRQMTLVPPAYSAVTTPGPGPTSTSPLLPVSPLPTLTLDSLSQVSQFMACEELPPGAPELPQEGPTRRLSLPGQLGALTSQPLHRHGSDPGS

Structure (SMILES) | hERG current change (%, negative = inhibition) at 1uM
CN(C)S(=O)(=O)c1ccc(NC(=O)C2CC(=O)N(Cc3ccccc3Cl)C2)cc1 (stereo not shown) | 11.9%
Cc1cccn2c(=O)c(/C=C(\C#N)S(=O)(=O)c3ccccc3)c(N3CCN(Cc4ccccc4)CC3)nc12 | 8.17%
CN(c1cccc(NC(=O)c2ccc(Cl)c(S(=O)(=O)N3CCOCC3)c2)c1)S(C)(=O)=O | 7.69%
CC1=NN(C(=O)c2ccco2)C(O)(c2ccccc2)C1 (stereo not shown) | 14.3%
Cc1ccc(-n2ncc(C#N)c2/N=C/N2CCCCCC2)cc1 | 16.8%
c1csc(-c2noc(CN3CCN4CCCC4C3)n2)c1 (stereo not shown) | 7.74%
Cc1cccc(NC(=O)/C(=C\c2ccco2)NC(=O)c2ccccc2)c1 | -3.55%
CCS(=O)(=O)N1CCN(C(=O)CC(C)C)CC1 | 10.7%
O=C(NCCc1ccccc1)C1CCC(CNS(=O)(=O)c2cccs2)CC1 (stereo not shown) | 5.07%
N#CC(c1ccc(O)cc1)N1CCOCC1 (stereo not shown) | 13%
CCOC(=O)c1c(CSc2ccccc2)n(C)c2cc(Br)c(OCC(O)CNC(CO)(CO)CO)cc12 (stereo not shown) | 2.39%
Cc1onc(-c2ccccc2)c1C(=O)NC(=S)NNC(=O)c1ccncc1 | 9%
O=C(NCC1(O)CCCCC1)C1CCC(=O)N(Cc2ccccc2F)C1 (stereo not shown) | 15.8%
Cc1[nH]c2ccc(C(=O)OCC(=O)Nc3cccc(S(N)(=O)=O)c3)cc2c1C | 10.1%
COC(=O)c1ccccc1NC(=O)c1cccs1 | 5.05%
Cc1ccc(NC(=O)CN(C)C(=O)C(C)OC(=O)CNC(=O)c2ccc(Cl)c([N+](=O)[O-])c2)cc1 (stereo not shown) | -21.7%
O=C1SC(Cc2ccccc2)C(=O)N1c1ccccc1 (stereo not shown) | 12.3%
COc1ccc(CCNC(=O)CCNC(=O)c2ccc(Br)cc2)cc1OC | -0.209%
CCOC(=O)c1c(C)[nH]c(NC(=O)Nc2ccc(NC(C)=O)cc2)c1C | 13.9%
COc1ccc(-n2ccnc2SCC(=O)NCc2ccc(F)cc2)c(OC)c1 | 4.57%
O=P(O)(O)Cc1ccccc1OP(=O)(c1ccccc1)c1ccccc1 | 0.73%
CCN1C(=O)N[C@@H](c2ccc(Br)cc2)C(C(C)=O)=C1C | 12.5%

Structure (SMILES) | hERG current change (%, negative = inhibition) at 1uM
CC(=O)Nc1ccc(S(=O)(=O)NCCc2cc3ccc(C)c(C)c3[nH]c2=O)cc1 | -1.43%
CCOC(=O)c1c(/N=C/c2ccc(C)cc2O)sc2c1CCC2 | 10.5%
COc1ccc(C(=O)NCCSc2ccc(C)cc2)cc1 | 10.7%
COC(=O)c1ccc(COc2ccccc2/C=N/NS(=O)(=O)c2ccccc2)cc1 | 18.1%
CC1CC(NC(=O)/C(C#N)=C/c2ccc[nH]2)CC(C)(C)C1 (stereo not shown) | 13.4%
COC(=O)C1(c2ccccc2)NC(c2cccs2)C2C(=O)N(c3ccccc3)C(=O)C21 (stereo not shown) | 11.5%
C#CCOCCOCCOCCNc1nc(N2CCN(C(=O)[C@H]([C@@H](C)CC)n3cc([C@@H](N)CO)nn3)CC2)nc(N2CCN(C(=O)[C@H](Cc3cc4ccccc4[nH]3)n3cc([C@@H](N)C(C)CC)nn3)CC2)n1.Cl (stereo partly shown) | -1.28%
CSc1cccc(NC(=O)C2(S(=O)(=O)c3ccc(C)cc3)CC2)c1 | 5.37%
Cc1cc(/C=N\O)c(C)n1-c1ccncc1 | 11%
COc1ccc(-c2nc(CS(=O)CC(=O)N3CCCC3)c(C)o2)cc1 (stereo not shown) | 11.9%
CCCn1nc(NC(=O)C2CCCO2)c2cc3ccc(C)cc3nc21 (stereo not shown) | 12.8%
COc1cc(C2SCCS2)cc(Br)c1Oc1ncccc1[N+](=O)[O-] | 10.3%
CCN1C(=O)[C@H]2[C@@H](c3ccc(-c4ccc5c(c4)OCO5)c(OC)c3)N[C@@](CC(C)C)(C(=O)OC)[C@H]2C1=O.O=C(O)C(F)(F)F | -4.19%
CCCCCN=C(C)c1c(O)c2ccccc2oc1=O | -1.14%
O=C(COc1ccc2ccccc2c1)N1CCN(C(=O)c2ccc([N+](=O)[O-])cc2)CC1 | -69.3%
COc1ccccc1NC(=O)CSc1nc2nc(C)cc(C)c2c(=O)[nH]1 | 4.96%
Cc1cc(OCc2cc(C(=O)N(C)C3CCOC3)no2)cc(C)c1Cl (stereo not shown) | -2.5%
C/C(=N\NC(=O)c1ccc(CSc2nncn2C)cc1)c1ccc(C#N)cc1 | -0.847%
Cc1ccc(CC(=O)Nc2ccncc2)cc1 | 12.9%
O=C(COc1ccc(S(=O)(=O)NCc2ccccc2)cc1Cl)N1CCOCC1 | 19.3%
COc1ccc(NC(=O)c2cccc(N3C(=O)C4C5C=CC(C5)C4C3=O)c2)cc1Cl (stereo not shown) | 12%

— paper PMC4336329 (PLoS ONE, 2015)
